The other results are listed elsewhere or left out. These are noisy estimates, calculated here from bound and input reads.
Target: T1, Pho4 (S. cerevisiae) (UniProt P07270)
T1 sequence: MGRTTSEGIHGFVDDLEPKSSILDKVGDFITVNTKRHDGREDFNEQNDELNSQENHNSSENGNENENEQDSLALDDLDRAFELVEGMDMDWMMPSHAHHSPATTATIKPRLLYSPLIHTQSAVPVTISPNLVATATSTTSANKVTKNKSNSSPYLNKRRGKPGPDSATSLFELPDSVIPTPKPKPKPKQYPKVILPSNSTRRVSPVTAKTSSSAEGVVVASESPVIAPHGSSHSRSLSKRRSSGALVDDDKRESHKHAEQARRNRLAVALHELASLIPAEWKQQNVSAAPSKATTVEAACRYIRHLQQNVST
Experiment: relative binding free energy (BET-seq); higher = weaker binding
Details: reference: library average

| Sequence | relative binding free energy [kJ/mol] |
| --- | --- |
| TTTGTCACGTGGGTAA | -0.126 |
| TGGAGCACGTGTGGAG | -0.377 |
| CGGTACACGTGCTTTG | 0.628 |
| TTGCTCACGTGATTTT | 0.753 |
| GCATTCACGTGTGGTA | 1.13 |
| GTGTTCACGTGGGCTG | 0.669 |
| TATAACACGTGATTAG | 0.711 |
| ATTGTCACGTGACATT | 0.502 |
| GGGGCCACGTGGTTTG | 0.251 |
| TTGTGCACGTGATAAA | 0.586 |
| TGCTACACGTGGGGCG | -0.837 |
| CGTTTCACGTGTACGG | 0.753 |
| TATGGCACGTGAGGCA | 0.837 |
| GTTATCACGTGAGTGT | 1.17 |
| GTTGACACGTGTCATG | -0.126 |
| GGGAACACGTGTGGAG | 1 |
| TAGGGCACGTGTGAAG | -0.377 |
| TGTAACACGTGTATAT | 0.0418 |
| TGTTACACGTGTGGTG | 0.586 |
| AGGCGCACGTGGTCTT | -0.586 |
| TAGATCACGTGGCGTG | -0.167 |
| AGTTGCACGTGGATAA | 0.418 |
| GGTATCACGTGCCGTG | 0.502 |

| Sequence | relative binding free energy [kJ/mol] |
| --- | --- |
| ACGGTCACGTGGCGGG | -0.293 |
| GTATTCACGTGTAGTA | 1.42 |
| TGTGTCACGTGTATTT | 0.753 |
| AGTCACACGTGTTTAT | 0.753 |
| ATTGACACGTGATGAT | 0.837 |
| GTTTTCACGTGGGTCC | 0.962 |
| TGAGTCACGTGGTATT | 0.418 |
| TTAGGCACGTGTCCGT | -0.711 |
| ACGAGCACGTGGAGGG | -0.335 |
| CGAGGCACGTGGTGAG | -0.293 |
| GTTAGCACGTGGTGGA | -0.377 |
| AAGGTCACGTGGTAAG | 0.418 |
| GGGAGCACGTGGTGGT | -0.251 |
| TAAAGCACGTGGTTTA | -0.795 |
| TTGGACACGTGGATTA | 0.669 |
| TAATACACGTGGGTTG | -0.502 |
| GATTTCACGTGCTGTG | 1.55 |
| TTTATCACGTGGGCTG | 0.0418 |
| TGTTTCACGTGGTCTC | 0.502 |
| GGTTCCACGTGTGGCT | 0.837 |
| GATTTCACGTGGAGAT | 1.46 |
| GTAGACACGTGCTGTT | -0.0837 |
| ATGTACACGTGTAGAT | 0.669 |

| Sequence | relative binding free energy [kJ/mol] |
| --- | --- |
| CAGTTCACGTGGTAGT | 0.669 |
| AATTTCACGTGGGGAC | 1.13 |
| ATATGCACGTGTAGAA | -0.0418 |
| TCATTCACGTGGTAGG | 0.335 |
| CTTAGCACGTGGGCGT | -1 |
| CGCTGCACGTGTGTGT | 0.126 |
| CTAGACACGTGGGCGG | -0.879 |
| TTTCTCACGTGGGTTC | 1 |
| GTTTGCACGTGTTATG | 0.335 |
| GAGTTCACGTGTAGGC | 1.3 |
| AAGATCACGTGTGGCG | 0.502 |
| TTTACCACGTGGGGTC | -0.879 |
| AGTTACACGTGTAGGC | 0.628 |
| CGTCTCACGTGGTGGT | 0.46 |
| AGGGTCACGTGTGTAC | 0.586 |
| TGTAACACGTGGGGTT | -0.544 |
| TCGGTCACGTGAAGGG | 2.18 |
| GGGCCCACGTGTTTGT | -0.0837 |
| CAAGCCACGTGGAGGG | 0.0837 |
| GTGCTCACGTGCGTTA | 1.3 |
| GGGTCCACGTGGGTCA | -0.377 |
| TGATTCACGTGTTAAA | 1.72 |
| TGCTACACGTGGGTAT | 0.0418 |

| Sequence | relative binding free energy [kJ/mol] |
| --- | --- |
| CGATACACGTGGTGTG | -0.251 |
| GGCGGCACGTGTGGCT | -0.126 |
| GTCGACACGTGGTATG | 0.126 |
| GATATCACGTGGCTTT | 0.628 |
| GGAGGCACGTGGGCCG | -0.837 |
| GCACGCACGTGGGGTA | -0.711 |
| TCAGGCACGTGACGGT | 0.293 |
| GGCAACACGTGAGTTT | 2.09 |
| TGAAACACGTGTGCTG | 0.167 |
| GAATGCACGTGTGTAA | 0.251 |
| TAGTTCACGTGGTAGA | 0.879 |
| AGTTTCACGTGATTCG | 2.09 |
| AATGGCACGTGGAGAT | -0.335 |
| AATTGCACGTGTACTG | 0.0418 |
| AAGGGCACGTGATGTC | 0.126 |
| CTTTGCACGTGATATG | -0.126 |
| TGATACACGTGGGCTT | -0.837 |
| CGGAACACGTGTTGTT | 0.293 |
| GGTAGCACGTGGGTGA | -0.753 |
| ATGATCACGTGATTGG | 0.209 |
| AATATCACGTGGTGGG | 0.586 |
| AATAACACGTGTGGCG | 1.34 |
| TTTAGCACGTGTCGAT | -0.0418 |

| Sequence | relative binding free energy [kJ/mol] |
| --- | --- |
| ATATACACGTGGGCGG | -1.09 |
| TGAGTCACGTGTGACT | 0.418 |
| TGCGTCACGTGACAGG | 0.502 |
| TAGTGCACGTGGGGGC | -1 |
| TACGGCACGTGGTGCT | -1.21 |
| TGCTCCACGTGGGTTG | -1.05 |
| ATTCTCACGTGCGTGG | 0.795 |
| GGGGGCACGTGGTGGG | -0.544 |
| TAGGGCACGTGAGAGT | 0.544 |
| TTAGGCACGTGAAGTC | 1.09 |
| TCTGGCACGTGCAGTG | -0.711 |
| CGTGTCACGTGGGTCA | -0.586 |
| GTTCGCACGTGGAGTA | -0.167 |
| GATGTCACGTGTAGTG | 0.628 |
| TGCGGCACGTGTGTAT | -0.209 |
| TCTGACACGTGTGTTA | 0.502 |
| ATATTCACGTGGATTT | 1.09 |
| TGGTCCACGTGCGGGC | 0.209 |
| GGTGGCACGTGTCTCT | -0.293 |
| TGTATCACGTGTAGCT | 0.377 |
| AGGGTCACGTGCGTGG | 0 |
| TTTATCACGTGTGTTC | 0.711 |
| TCCGTCACGTGTGTTT | 0.879 |
